Results reported in the supplement of paper PMC4967469.
IC50 is the fitted dose that halves viability relative to control wells, and lower means more sensitive; where the fit passes the top or lowest dose, that dose stands as a limit. AUC, from the same fit, is the share of area under the viability curve across the 256-fold dose range; it is 1 without any effect and falls as sensitivity rises. Any top dose called inferred was derived from the fitted curves, not read from the paper. For part of these data: Where an entry number is given, a second screen of the drug exists; the two often differ.

How the values were obtained:
AZD6482 = compound: Cc1cc([C@@H](C)Nc2ccccc2C(=O)O)c2nc(N3CCOCC3)cc(=O)n2c1 [AZD6482]; assay: Viability of human cancer cell lines after 72 h of drug (GDSC screen)
Protocol: (§1)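 Human cancer cell lines in 384-well plates, medium with 10% serum, drug for 72 h over a 256-fold dose range (nine 2-fold or five 4-fold steps up to the top dose). Adherent lines were fixed and stained with the nucleic acid dye Syto60, suspension lines read with resazurin; signal relative to control wells, capped at 0 and 100%. One two-parameter sigmoid per drug and line, fitted in a mixed model over all curves with the slope shared within a line.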

BMN-673 = compound: Cn1ncnc1[C@H]1c2n[nH]c(=O)c3cc(F)cc(c23)N[C@@H]1c1ccc(F)cc1 [BMN-673]; assay: as above; conditions: top dose 10 µM; top dose inferred
Protocol: as §1

[1] = top dose 5 µM, screen: GDSC drug entry 1066, top dose inferred
[2] = top dose 5.12 µM, screen: GDSC drug entry 156

Cell Line	AUC (AZD6482; [1])	IC50 (AZD6482; [1]) [µM]	AUC (AZD6482; [2])	IC50 (AZD6482; [2]) [µM]	AUC (BMN-673)	IC50 (BMN-673) [µM]
201T (lung adenocarcinoma, adherent)	0.927	> 5	0.917	> 5.12		
NCI-H2052 (mesothelioma, adherent)	0.641	0.861	0.927	> 5.12		
SU-DHL-6 (B-cell lymphoma, suspension)	0.522	0.353	0.237	0.0721	0.995	> 10
PA-1 (ovary, adherent)	0.86	2.8	0.99	> 5.12		
SU-DHL-1 (anaplastic large cell lymphoma, suspension)			0.997	> 5.12		
NB17 (neuroblastoma, adherent)	0.716	1.41	0.899	> 5.12	0.671	2.03
UACC-812 (breast, adherent)			0.978	> 5.12		
MDA-MB-231 (breast, adherent)	0.933	> 5	0.943	> 5.12		
GMS-10 (glioma, adherent)	0.915	> 5	0.931	> 5.12		
NCI-H2171 (small cell lung carcinoma, suspension)			0.992	> 5.12		
SUP-B15 (lymphoblastic leukaemia, suspension)	0.85	3.53	0.918	> 5.12		
THP-1 (acute myeloid leukaemia, suspension)	0.92	> 5	0.99	> 5.12		
MHH-NB-11 (neuroblastoma, adherent)			0.97	> 5.12		
ECC12 (stomach, suspension)			0.949	> 5.12		
COR-L279 (small cell lung carcinoma, suspension)	0.988	> 5	0.956	> 5.12	0.537	0.778
PANC-04-03 (pancreas, adherent)	0.924	> 5	0.963	> 5.12		
NCI-H1963 (small cell lung carcinoma, suspension)	0.99	> 5	0.983	> 5.12		
SIG-M5 (acute myeloid leukaemia, suspension)			0.883	3.17		

Cell Line	AUC (AZD6482; [1])	IC50 (AZD6482; [1]) [µM]	AUC (AZD6482; [2])	IC50 (AZD6482; [2]) [µM]	AUC (BMN-673)	IC50 (BMN-673) [µM]
HCE-4 (oesophagus, adherent)	0.929	> 5	0.983	> 5.12		
BC-3 (B-cell lymphoma, suspension)			0.942	> 5.12		
TE-441-T (rhabdomyosarcoma, adherent)			0.958	> 5.12		
MIA-PaCa-2 (pancreas, adherent)	0.929	> 5	0.977	> 5.12	0.584	1.09
NK-92MI (lymphoid neoplasm, suspension)			0.853	3.57		
MG-63 (osteosarcoma, adherent)	0.702	1.28	0.798	2.9		
BICR31 (head and neck, adherent)			0.849	3.89		
HPAC (pancreas, adherent)	0.88	> 5	0.965	> 5.12		
BB30-HNC (head and neck, adherent)	0.895	> 5	0.86	4.13	0.623	1.35
CHP-126 (neuroblastoma, suspension)	0.981	> 5	0.941	> 5.12	0.503	0.636
NCI-H64 (small cell lung carcinoma, suspension)	0.975	> 5	0.853	2.5		
GCIY (stomach, adherent)	0.789	2.53	0.9	> 5.12		
KMRC-1 (kidney, adherent)	0.796	2.5	0.778	2.21		
NCI-H1650 (lung adenocarcinoma, adherent)	0.921	> 5				
SF126 (glioma, adherent)	0.95	> 5	0.8	2.64	0.759	3.67
HCC-33 (small cell lung carcinoma, adherent)			0.957	> 5.12		
NCI-H748 (small cell lung carcinoma, suspension)			0.933	> 5.12		
KMS-12-BM (myeloma, suspension)	0.851	2.85	0.953	> 5.12		
